This assay deals with T-tropic HIV O18A. As to the kind of experiment: Anti-HIV activity by MAGI assay, O18A. The assay is classed as cell-based. The note with it: read-out: Infection preventive activity (IC50nM).

B1: K97-0003 peptide: polypeptide having the amino acid sequence of SEQ.ID.NO.1, purified from culture fluid of actinomycete strain K97-0003, about 14 KDa (protein)
chain: ASVTIRNAQTGRLLDSNYNGNVYTLPANGGNYQRWTGPGDGTVRNAQTGRCLDSNYDGAVYTLPCNGGSYQKWLFYSNGYIQNVETGRVLDSNYNGNVYTLPANGGNYQKWYTG
modifications: Actinomyces K97-0003 Strain
With B1, the IC50 stood at 110 nM.
